# The list shows a part of the results. Most values come without repeats; read them as rough.
# Tested on: MDA-468
# Test: cell viability relative to vehicle (% of vehicle); basal-like triple-negative breast cancer lines; higher = less cytotoxic
# Conditions: 10 µM; 72 h
# 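Further: stably firefly luciferase-GFP labeled cells in 96-well plates, viability read as luciferase photon flux after d-luciferin addition, treated wells normalized to vehicle wells, single-dose high-throughput screen.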
row,Structure (SMILES),cell viability
1,COc1cc(Nc2c(C#N)cnc3cc(OCCCN4CCN(C)CC4)c(OC)cc23)c(Cl)cc1Cl [Bosutinib (SKI-606)],108
2,COc1c(C)c2c(c(O)c1CC=C(C)CCC(=O)O)C(=O)OC2 [Mycophenolic acid],68.4
3,O=C1OC(C(O)CO)C(O)=C1O (stereo not given) [Vitamin C],105
4,COc1cc(C(C)=O)ccc1OCCCN1CCC(c2noc3cc(F)ccc23)CC1 [Iloperidone],88.9
5,O=C(NC1CCN(CCCCC2(C(=O)NCC(F)(F)F)c3ccccc3-c3ccccc32)CC1)c1ccccc1-c1ccc(C(F)(F)F)cc1 [Lomitapide],28.2
6,NCCc1cnc[nH]1.O=P(O)(O)O.O=P(O)(O)O [Histamine Phosphate],105
7,Nc1ccc(C(=O)[O-])c(O)c1.O.O.[Na+] [Sodium 4-Aminosalicylate],93.7
8,CC(COc1ccccc1)N(CCCl)Cc1ccccc1.Cl (stereo not given) [Phenoxybenzamine HCl],124
9,CC1(C)Cc2c(-c3ccccc3)c(-c3ccc(Cl)cc3)c(CC(=O)O)n2C1 [Licofelone],114
10,CN(N=O)C(=O)NC1C(O)OC(CO)C(O)C1O (stereo not given) [Streptozocin],91.9
11,CCN1CCN(C(=O)NC(C(=O)NC2C(=O)N3C(C(=O)O)=C(CSc4nnnn4C)CSC23)c2ccc(O)cc2)C(=O)C1=O (stereo not given) [Cefoperazone],104
12,O=c1c(-c2ccc(O)cc2)coc2cc(O)ccc12 [Daidzein],165
13,Cl.O=C(CCCN1CCC(O)(c2ccc(Cl)cc2)CC1)c1ccc(F)cc1 [Haloperidol hydrochloride],132
14,CS(=O)(=O)c1ccc(C(O)C(CO)NC(=O)C(Cl)Cl)cc1 (stereo not given) [Thiamphenicol],105
15,CCOc1ccc(Cc2cc(C3OC(CO)C(O)C(O)C3O)ccc2Cl)cc1 (stereo not given) [Dapagliflozin],86
16,CN(C)C(=O)NC1CCC(CCN2CCN(c3cccc(Cl)c3Cl)CC2)CC1 (stereo not given) [Cariprazine],88.6
17,NC(CO)(CO)CO.O=C(c1ccccc1)c1ccc2n1CCC2C(=O)O (stereo not given) [Ketorolac tromethamine salt],135
18,C.CCN1CC(CCN2CCOCC2)C(c2ccccc2)(c2ccccc2)C1=O.O (stereo not given) [Doxapram HCl],94.5
19,CN(C)CCOC(C)(c1ccccc1)c1ccccn1.O=C(O)CCC(=O)O (stereo not given) [Doxylamine Succinate],111
20,CC(C)Cc1ccc(C(C)C(=O)O)cc1 (stereo not given) [Ibuprofen],99.1

row,Structure (SMILES),cell viability
1,CC(=O)Oc1cc2c(s1)CCN(C(C(=O)C1CC1)c1ccccc1F)C2.Cl (stereo not given) [Prasugrel hydrochloride],117
2,O=C([O-])CCCc1ccccc1.[Na+] [Sodium Phenylbutyrate],97.6
3,Cl.O=C1c2cccc3c2C(CCC3)CN1C1CN2CCC1CC2 (stereo not given) [Palonosetron HCl],73
4,CC1(c2nc3c(C(N)=O)cccc3[nH]2)CCCN1 (stereo not given) [ABT-888 (Veliparib)],81.3
5,CO[C@H]1C[C@@H]2CC[C@@H](C)[C@@](O)(O2)C(=O)C(=O)N2CCCC[C@H]2C(=O)O[C@H]([C@H](C)C[C@@H]2CC[C@@H](OC(=O)C(C)(CO)CO)[C@H](OC)C2)CC(=O)[C@H](C)/C=C(\C)[C@@H](O)[C@@H](OC)C(=O)[C@H](C)C[C@H](C)/C=C/C=C/C=C/1C [Temsirolimus],78.8
6,CCCNC(C)C(=O)Nc1ccccc1C.Cl (stereo not given) [Prilocaine hydrochloride],98.4
7,S=P(N1CC1)(N1CC1)N1CC1,101
8,CCCCC(=O)OC1(C(=O)CO)C(C)CC2C3CCC4=CC(=O)C=CC4(C)C3(F)C(O)CC21C (stereo not given) [Betamethasone Valerate],156
9,CN(C)CCOC(c1ccccc1)c1ccccc1.Cl [Diphenhydramine HCl],97.4
10,CC1(C)SC2C(NC(=O)C(NC(=O)N3CCNC3=O)c3ccccc3)C(=O)N2C1C(=O)[O-].[Na+] (stereo not given) [Azlocillin sodium salt],104
11,Cc1ccc(Nc2nccc(N(C)c3ccc4c(C)n(C)nc4c3)n2)cc1S(N)(=O)=O.Cl,88.6
12,CC(C)N=c1cc2n(-c3ccc(Cl)cc3)c3ccccc3nc-2cc1Nc1ccc(Cl)cc1 [Clofazimine],94.5
13,O=C(CCc1ccc(O)cc1)c1c(O)cc(O)cc1OC1OC(CO)C(O)C(O)C1O (stereo not given) [Phloridzin],126
14,O=C(CCCN1CCN(c2ccccn2)CC1)c1ccc(F)cc1 [Azaperone],114
15,CC(=O)O[C@@]12CO[C@@H]1C[C@H](O)[C@@]1(C)C(=O)[C@H](O)C3=C(C)[C@@H](OC(=O)[C@H](O)[C@@H](NC(=O)OC(C)(C)C)c4ccccc4)C[C@@](O)([C@@H](OC(=O)c4ccccc4)[C@H]21)C3(C)C [Docetaxel],82.6
16,CC(C)(O)c1ccccc1CCC(SCC1(CC(=O)[O-])CC1)c1cccc(C=Cc2ccc3ccc(Cl)cc3n2)c1.[Na+] (stereo not given) [Montelukast Sodium],111
17,Nc1c(CC(=O)[O-])cccc1C(=O)c1ccc(Br)cc1.[Na+] [Bromfenac Sodium],107
18,Cc1cccn2c(=O)c(-c3nnn[n-]3)cnc12.[K+] [Pemirolast potassium],103
19,CNC(=C[N+](=O)[O-])NCCSCc1ccc(CN(C)C)o1.Cl [Ranitidine],96.6
20,O=P(O)(O)C(O)(Cn1ccnc1)P(=O)(O)O [Zoledronic Acid],97

# Reference: the supplement of paper PMC8512760
